Experimental data from the supplement of paper PMC12423691.
The other results are listed elsewhere or left out. Binding of human transcription factors and regulators to the viral nucleoprotein by AlphaScreen, crude cell-free proteins, amounts not normalised, one pass. Fold of the Venus control; higher = more signal. No active / inactive call. Single-pass screen; sequences are the whole Swiss-Prot entries looked up by name.

B1: RWDD3, Q9Y3V2 (protein)
chain: MAEPVQEELSVLAAIFCRPHEWEVLSRSETDGTVFRIHTKAEGFMDVDIPLELVFHLPVNYPSCLPGISINSEQLTRAQCVTVKENLLEQAESLLSEPMVHELVLWIQQNLRHILSQPETGSGSEKCTFSTSTTMDDGLWITLLHLDHMRAKTKYVKIVEKWASDLRLTGRLMFMGKIILILLQGDRNNLKEYLILQKTSKVDVDSSGKKCKEKMISVLFETKVQTEHKRFLAFEVKEYSALDELQKEFETAGLKKLFSEFVLALVK
B2: NEUROD2, Q15784 (protein)
chain: MLTRLFSEPGLLSDVPKFASWGDGEDDEPRSDKGDAPPPPPPAPGPGAPGPARAAKPVPLRGEEGTEATLAEVKEEGELGGEEEEEEEEEEGLDEAEGERPKKRGPKKRKMTKARLERSKLRRQKANARERNRMHDLNAALDNLRKVVPCYSKTQKLSKIETLRLAKNYIWALSEILRSGKRPDLVSYVQTLCKGLSQPTTNLVAGCLQLNSRNFLTEQGADGAGRFHGSGGPFAMHPYPYPCSRLAGAQCQAAGGLGGGAAHALRTHGYCAAYETLYAAAGGGGASPDYNSSEYEGPLSPPLCLNGNFSLKQDSSPDHEKSYHYSMHYSALPGSRPTGHGLVFGSSAVRGGVHSENLLSYDMHLHHDRGPMYEELNAFFHN
B3: NKX2-1, P43699 (protein)
chain: MSMSPKHTTPFSVSDILSPLEESYKKVGMEGGGLGAPLAAYRQGQAAPPTAAMQQHAVGHHGAVTAAYHMTAAGVPQLSHSAVGGYCNGNLGNMSELPPYQDTMRNSASGPGWYGANPDPRFPAISRFMGPASGMNMSGMGGLGSLGDVSKNMAPLPSAPRRKRRVLFSQAQVYELERRFKQQKYLSAPEREHLASMIHLTPTQVKIWFQNHRYKMKRQAKDKAAQQQLQQDSGGGGGGGGTGCPQQQQAQQQSPRRVAVPVLVKDGKPCQAGAPAPGAASLQGHAQQQAQHQAQAAQAAAAAISVGSGGAGLGAHPGHQPGSAGQSPDLAHHAASPAALQGQVSSLSHLNSSGSDYGTMSCSTLLYGRTW
B4: GPBP1L1, Q9HC44 (protein)
chain: MAQHDFVPAWLNFSTPQSAKSPTATFEKHGEHLPRGEGRFGVSRRRHNSSDGFFNNGPLRTAGDSWHQPSLFRHDSVDSGVSKGAYAGITGNPSGWHSSSRGHDGMSQRSGGGTGNHRHWNGSFHSRKGCAFQEKPPMEIREEKKEDKVEKLQFEEEDFPSLNPEAGKQHQPCRPIGTPSGVWENPPSAKQPSKMLVIKKVSKEDPAAAFSAAFTSPGSHHANGNKLSSVVPSVYKNLVPKPVPPPSKPNAWKANRMEHKSGSLSSSRESAFTSPISVTKPVVLASGAALSSPKESPSSTTPPIEISSSRLTKLTRRTTDRKSEFLKTLKDDRNGDFSENRDCDKLEDLEDNSTPEPKENGEEGCHQNGLALPVVEEGEVLSHSLEAEHRLLKAMGWQEYPENDENCLPLTEDELKEFHMKTEQLRRNGFGKNGFLQSRSSSLFSPWRSTCKAEFEDSDTETSSSETSDDDAWK
B5: ISL1, P61371 (protein)
chain: MGDMGDPPKKKRLISLCVGCGNQIHDQYILRVSPDLEWHAACLKCAECNQYLDESCTCFVRDGKTYCKRDYIRLYGIKCAKCSIGFSKNDFVMRARSKVYHIECFRCVACSRQLIPGDEFALREDGLFCRADHDVVERASLGAGDPLSPLHPARPLQMAAEPISARQPALRPHVHKQPEKTTRVRTVLNEKQLHTLRTCYAANPRPDALMKEQLVEMTGLSPRVIRVWFQNKRCKDKKRSIMMKQLQQQQPNDKTNIQGMTGTPMVAASPERHDGGLQANPVEVQSYQPPWKVLSDFALQSDIDQPAFQQLVNFSEGGPGSNSTGSEVASMSSQLPDTPNSMVASPIEA
B6: HDAC3, O15379 (protein)
chain: MAKTVAYFYDPDVGNFHYGAGHPMKPHRLALTHSLVLHYGLYKKMIVFKPYQASQHDMCRFHSEDYIDFLQRVSPTNMQGFTKSLNAFNVGDDCPVFPGLFEFCSRYTGASLQGATQLNNKICDIAINWAGGLHHAKKFEASGFCYVNDIVIGILELLKYHPRVLYIDIDIHHGDGVQEAFYLTDRVMTVSFHKYGNYFFPGTGDMYEVGAESGRYYCLNVPLRDGIDDQSYKHLFQPVINQVVDFYQPTCIVLQCGADSLGCDRLGCFNLSIRGHGECVEYVKSFNIPLLVLGGGGYTVRNVARCWTYETSLLVEEAISEELPYSEYFEYFAPDFTLHPDVSTRIENQNSRQYLDQIRQTIFENLKMLNHAPSVQIHDVPADLLTYDRTDEADAEERGPEENYSRPEAPNEFYDGDHDNDKESDVEI
B7: ZNF18, P17022 (protein)
chain: MPVDLGQALGLLPSLAKAEDSQFSESDAALQEELSSPETARQLFRQFRYQVMSGPHETLKQLRKLCFQWLQPEVHTKEQILEILMLEQFLTILPGEIQMWVRKQCPGSGEEAVTLVESLKGDPQRLWQWISIQVLGQDILSEKMESPSCQVGEVEPHLEVVPQELGLENSSSGPGELLSHIVKEESDTEAELALAASQPARLEERLIRDQDLGASLLPAAPQEQWRQLDSTQKEQYWDLMLETYGKMVSGAGISHPKSDLTNSIEFGEELAGIYLHVNEKIPRPTCIGDRQENDKENLNLENHRDQELLHASCQASGEVPSQASLRGFFTEDEPGCFGEGENLPEALQNIQDEGTGEQLSPQERISEKQLGQHLPNPHSGEMSTMWLEEKRETSQKGQPRAPMAQKLPTCRECGKTFYRNSQLIFHQRTHTGETYFQCTICKKAFLRSSDFVKHQRTHTGEKPCKCDYCGKGFSDFSGLRHHEKIHTGEKPYKCPICEKSFIQRSNFNRHQRVHTGEKPYKCSHCGKSFSWSSSLDKHQRSHLGKKPFQ
B8: FOXH1, O75593 (protein)
chain: MGPCSGSRLGPPEAESPSQPPKRRKKRYLRHDKPPYTYLAMIALVIQAAPSRRLKLAQIIRQVQAVFPFFREDYEGWKDSIRHNLSSNRCFRKVPKDPAKPQAKGNFWAVDVSLIPAEALRLQNTALCRRWQNGGARGAFAKDLGPYVLHGRPYRPPSPPPPPSEGFSIKSLLGGSGEGAPWPGLAPQSSPVPAGTGNSGEEAVPTPPLPSSERPLWPLCPLPGPTRVEGETVQGGAIGPSTLSPEPRAWPLHLLQGTAVPGGRSSGGHRASLWGQLPTSYLPIYTPNVVMPLAPPPTSCPQCPSTSPAYWGVAPETRGPPGLLCDLDALFQGVPPNKSIYDVWVSHPRDLAAPGPGWLLSWCSL

Molecular target: nucleoprotein N of Crimean-Congo hemorrhagic fever virus
Experiment: AlphaScreen luminescence signal relative to Venus negative control (fold); higher = stronger binding to CCHFV N
Procedure: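 AlphaScreen binding of cell-free made, FLAG-GST-tagged human transcription factors and regulators (crude translation products) to biotinylated N protein; signal as fold of the FLAG-GST-Venus control. One pass.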

Row | Binder | AlphaScreen luminescence signal
1 | B1 | 1.58
2 | B2 | 3.72
3 | B3 | 2.74
4 | B4 | 10.2
5 | B5 | 1.67
6 | B6 | 1.67
7 | B7 | 1.53
8 | B8 | 1.81
